The target in experiment [1] is T1, human SIRP-α v1 D1 domain (human, UniProt P78324 31-149).
T1 construct: also called human v1
Put plainly: SPR, Langmuir fit. A digest of the protocol: (§1)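 Antibody clones in scFv-Fc format were captured from pre-filtered culture media onto anti-human IgG Fc, amine-coupled (about 4000 RU) on a GLC chip of a ProteOn XPR36 instrument. SIRP analytes were flowed in PBS pH 7.4 with 0.01% Tween-20 at 25° C. Data were double-referenced against interspot and buffer-blank responses. Dissociation rate constants (koff) were derived by fitting a 1:1 Langmuir model.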
(In general: Surface plasmon resonance follows binding to a sensor surface in real time, without labels.)

Experiment [2] deals with T2, human SIRP-α v2 D1 domain (human).
T2 construct: also called human v2
Put plainly: SPR, Langmuir fit. In outline:
as §1

In experiment [3] the target is T3, human SIRPβ isoform 1 (human, UniProt O00241 30-148).
T3 construct: also called SIRPb; sirpb1
Description: SPR, Langmuir fit. In outline: as §1

Experiment [4] deals with T4, human SIRPγ isoform 1 (human, UniProt Q9P1W8 29-147).
T4 construct: also called SIRPg; sirpg
Description: SPR, Langmuir fit. A digest of the protocol: as §1

In experiment [5] the target is T5, high affinity SIRP-α D1 variant CV1-3.
T5 chain: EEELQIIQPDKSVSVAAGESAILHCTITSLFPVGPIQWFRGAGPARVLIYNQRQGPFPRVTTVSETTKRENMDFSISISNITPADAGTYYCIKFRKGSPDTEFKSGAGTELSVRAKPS
Description: SPR, Langmuir fit. A digest of the protocol: as §1

Experiment [6] addresses T6, cynomolgus SIRP-α D1 domain (cyno2) (cynomolgus monkey, UniProt Q5TFQ8 30-148 (human entry), limits assumed).
T6 chain: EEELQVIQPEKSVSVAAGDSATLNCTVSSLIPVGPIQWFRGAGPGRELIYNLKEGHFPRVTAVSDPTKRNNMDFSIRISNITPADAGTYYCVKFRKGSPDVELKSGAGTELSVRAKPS
Put plainly: SPR, Langmuir fit. In outline: as §1

In experiment [7] the target is T7, cynomolgus SIRP-α D1 domain (cyno1) (cynomolgus monkey, UniProt Q5TFQ8 30-148 (human entry), limits assumed).
T7 chain: T6 chain with D19E, V27A, S28T, A42V, N51H, L52Q, A62P
Description: SPR, Langmuir fit. A digest of the protocol:
as §1

Experiment [8] deals with T8, NOD mouse SIRP-α D1 domain (mouse (NOD strain)).
T8 chain: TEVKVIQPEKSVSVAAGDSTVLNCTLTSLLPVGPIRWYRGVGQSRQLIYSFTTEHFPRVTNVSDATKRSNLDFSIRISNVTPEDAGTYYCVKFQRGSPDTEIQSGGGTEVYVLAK
Description: SPR. A digest of the protocol:
as §1

In experiment [9] the target is T9, mouse 129 SIRP-α D1 domain (mouse (129 strain), UniProt P97797 32-150).
T9 construct: also called m129
T9 chain: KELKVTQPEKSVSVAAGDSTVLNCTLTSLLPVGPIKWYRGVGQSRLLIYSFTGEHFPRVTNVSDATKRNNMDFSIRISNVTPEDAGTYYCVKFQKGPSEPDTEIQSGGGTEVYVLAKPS
Put plainly: SPR. In outline: as §1

Experiment [10] deals with T10, C57BL/6 mouse SIRP-α D1 domain (mouse (C57BL/6 strain), UniProt P97797 32-148).
T10 sequence: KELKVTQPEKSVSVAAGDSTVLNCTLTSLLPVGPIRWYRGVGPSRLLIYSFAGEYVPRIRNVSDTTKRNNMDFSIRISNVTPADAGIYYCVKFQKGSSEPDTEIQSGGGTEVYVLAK
Description: SPR. In outline: as §1

In experiment [11] the target is T11, human SIRP-α v1 D1 domain (human, UniProt P78324 31-149).
T11 construct: also called human v1; human α v1
Description: SPR, captured scFv-Fc, 100 nM analyte. As for the experimental part:
(§2) Binding of the antibody clones to various SIRP proteins was determined using surface plasmon resonance (SPR) detection on a ProteOn XPR36 instrument (Bio-Rad, Hercules, Calif.) using phosphate buffered saline (PBS, pH 7.4) supplemented with 0.01% Tween-20 (PBST) as running buffer. The pre-filtered media containing the secreted antibodies was used directly for the assay. First, anti-Human IgG Fc (BR-1008-39, GE Healthcare) was amine-coupled onto a GLC sensor chip to generate the capture surfaces for the antibodies. About 4000 RU per flow cell of immobilized anti-human IgG Fc is achieved. Each clone is screened using the same method as follows.
(§3) (1) ‥5-10 uL of pre-filtered media in 10 mM sodium acetate buffer (pH4.5) was injected for 2 mins at 30 ul/min;
(§4) The koff rates of binding of each clone to each SIRP analyte were determined using SPR (Table C). The SPR screening conditions have been described herein, and the Koff values were determined using Langmuir kinetic fittings. The CD47 blocking properties (block, non-block, kick-off) are described in the last column of the Table C. Each antibody is identified according to its corresponding SEQ ID NO. SIRP analyte sequences are as follows: CV1-3, SEQ ID NO:18; v1, SEQ ID NO:5; v2, SEQ ID NO:6; cyno1, SEQ ID NO:11; cyno2, SEQ ID NO:12; m129, SEQ ID NO:7; NOD, SEQ ID NO: 8; BL6, SEQ ID NO:9; sirpb1, SEQ ID NO:13; sirpg, SEQ ID NO:15.

For experiment [12], the target named is T12, cynomolgus SIRP-α D1 domain (SEQ ID NO:12) (cynomolgus, UniProt Q5TFQ8 30-148 (human entry), limits assumed).
T12 construct: also called cyno2; Cyno2
T12 chain: T6 chain
Description: SPR, captured scFv-Fc, 100 nM analyte. As to the method:
as §2, §3, §4

Experiment [13] addresses T13, cynomolgus SIRP-α D1 domain (SEQ ID NO:11) (cynomolgus, UniProt Q5TFQ8 30-148 (human entry), limits assumed).
T13 construct: also called cyno1
T13 chain: T6 chain with D19E, V27A, S28T, A42V, N51H, L52Q, A62P
Description: SPR, captured scFv-Fc, 100 nM analyte. As to the method:
as §2, §3, §4

Experiment [14] concerns the target T14, human SIRP-α v2 D1 domain (human).
T14 construct: also called human v2; human α v2
Description: SPR, captured scFv-Fc, 100 nM analyte. As for the experimental part:
as §2, §3, §4

Experiment [15] concerns the target T15, C57BL/6 mouse SIRP-α D1 domain (mouse (C57BL/6 strain), UniProt P97797 32-148).
T15 sequence: T10 sequence
Description: SPR, captured scFv-Fc, 100 nM analyte. As to the method: as §2, §3, §4

In experiment [16] the target is T16, human SIRPγ isoform 1 (human, UniProt Q9P1W8 29-147).
T16 construct: also called sirpg; sirp-g
Description: SPR, captured scFv-Fc, 100 nM analyte. As for the experimental part:
as §2, §3, §4

Experiment [17] has as its target T17, NOD mouse SIRP-α D1 domain (mouse (NOD strain)).
T17 chain: T8 chain
Put plainly: SPR, captured scFv-Fc, 100 nM analyte. As to the method: as §2, §3, §4

The target of experiment [18] is T18, high affinity SIRP-α D1 variant CV1-3 (human).
T18 chain: T5 chain
Put plainly: SPR, captured scFv-Fc, 100 nM analyte. As for the experimental part:
as §2, §3, §4

Experiment [19] concerns the target T19, human SIRPβ isoform 1 (human, UniProt O00241 30-148).
T19 construct: also called sirpb1; Sirpb1
Description: SPR, captured scFv-Fc, 100 nM analyte. As to the method:
as §2, §3, §4

Experiment [20] addresses T20, mouse 129 SIRP-α D1 domain (mouse (129 strain), UniProt P97797 32-150).
T20 construct: also called m129
T20 chain: T9 chain
Put plainly: SPR, captured scFv-Fc. In outline:
as §1

Numbering of substitutions follows the chain as printed.

Sequence of human SIRPγ isoform 1 (Q9P1W8 29-147 limits assumed): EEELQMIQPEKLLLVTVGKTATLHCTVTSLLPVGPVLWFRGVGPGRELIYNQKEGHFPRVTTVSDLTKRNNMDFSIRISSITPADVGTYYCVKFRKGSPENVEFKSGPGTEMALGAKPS
Sequence of human SIRPβ isoform 1 (O00241 30-148 limits assumed): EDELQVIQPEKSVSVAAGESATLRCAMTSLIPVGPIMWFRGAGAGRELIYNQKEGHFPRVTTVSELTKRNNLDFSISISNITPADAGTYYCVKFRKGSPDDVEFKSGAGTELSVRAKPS

B1: S115 (scFv)
scFv: ETVLTQSPATLSVSPGERATLSCRASQTVGSKLAWHQQKPGQAPRLLIYDATNRATGISDRFSGSGSGTDFTLTISSLQTEDSAVYYCQQYYYWPPYRFGGGTKVEIKGQSSRSSGGGGSSGGGGSDVQLVESGGGVVRPGESLRLSCAASGFSFSSYAMNWVRQAPGEGLEWVSRINSGGGGTDYAESVKGRFTISRDNSENTLYLQMNSLRAEDTAVYYCAKQYDWNSFFDYWGLGALVTVSSSL[letters of human IgG1 Fc with C220S (EU numbers) and a few adjoining residues left out]
For orientation: koff means the rate constant with which the complex falls apart. High values mean a short-lived complex, low ones a long-lived complex. With B1, the koff in [1] came to 7.86e-06 s⁻¹; in experiment [2] it was 1.95e-05 s⁻¹; in the experiment with human SIRPβ isoform 1 [3], 3.69e-05 s⁻¹; with human SIRPγ isoform 1 [4], 3.34e-05 s⁻¹; in experiment [5], 0.000484 s⁻¹; in experiment [6], 6.91e-05 s⁻¹. The koff in experiment [7] is 2.22e-05 s⁻¹. For the same molecule, the binding result in [8], in experiment [9] and in [10] was “no binding (tested: Koff > 5 × 10^3 (legend))” each time.

B2: S117 (scFv)
scFv: ETVLTQSPATLSVSPGERATLSCRASQTVGSKLAWHQQKPGQAPRLLIYDATNRATGIPDRFSGSGSGTDFTLTISSLQTEDSAVYYCQQYYYWPPYRFGGGTKVEIKGQSSRSSGGGGSSRGGGSDVQLVESGGGVVRPGESLRLSCAASGFSFSSYAMNWVRQAPGEGLEWVSRINSGGGGTDYAESVKGRFTISRDNSENTLYLQMNSLRAEDTAVYYCAKQYDWNGFFDYWGLGALVTVSSSL[letters of human IgG1 Fc with C220S A231V (EU numbers) and a few adjoining residues left out]
For the molecule B2, the koff in experiment [1] was 1.2e-05 s⁻¹; in experiment [2], 3.4e-05 s⁻¹; with human SIRPβ isoform 1 [3], 3.54e-05 s⁻¹; with human SIRPγ isoform 1 [4], 4.3e-06 s⁻¹; in experiment [5] it was 0.000275 s⁻¹; in experiment [6], 5.92e-05 s⁻¹. Also, the koff in [7] was determined as 1.83e-05 s⁻¹. In addition, the binding result in [8], in experiment [9] and in [10] was “no binding (tested: Koff > 5 × 10^3 (legend))” each time.

B3: S116 (scFv)
scFv: ETVLTQSPATLSVSPGERATLSCRASQTVGSKLAWHQQKPGQAPRLLIYDATNRATGISDRFSGSRSGTDFTLTISSLQTEDSAVYYCQQYYYWPPYRFGGGTKVEIKGQSSRSSGGGGSSGGGGSDVQLVESGGGVVRPGESLRLSCAASGFSFSSYAMNWVRQAPGEGLEWVSRINSGGGGTDYAESVKGRFTISRDNSENTLYLQMNSLRAEDTAVYYCAKQYDWNSFFDYWGLGALVTVSSSL[letters of human IgG1 Fc with C220S (EU numbers) and a few adjoining residues left out]
B3: the koff in experiment [1] stood at 2.84e-05 s⁻¹; in experiment [2] it was 5.07e-05 s⁻¹; with human SIRPβ isoform 1 [3] it was 3.09e-05 s⁻¹; with human SIRPγ isoform 1 [4], 8.25e-05 s⁻¹; in experiment [5], 0.00048 s⁻¹; in [6], 0.00012 s⁻¹. This molecule had a koff in experiment [7] of 7.01e-05 s⁻¹. Further, the binding result in experiment [8], in experiment [9] and in experiment [10] was “no binding (tested: Koff > 5 × 10^3 (legend))” each time.

B4: S135 (scFv)
scFv: EIVLTQSPATLSVSPGERVTFSCRASQNVRSDIAWYQQKPGQAPRLLIYAASSRDTGIPDRFSGSGSGTDFTLTISSLQSEDFGVYYCQQYYDWPPFTFGGGTKVEIKGQSSRSSGGGGSSGGGGSDVQLVESGGGVVRPGESLRLSCAASGFSFSIYAMSWVRQAPGEGLEWVSTIGADDTYYADSVKGRFTISRDNSKNTLYLQMNSLRAEDTAVYYCAKDSTVGWSGDFFDYWGLGTLVTVSSSL[letters of human IgG1 Fc with C220S (EU numbers) and a few adjoining residues left out]
As for B4, the koff in experiment [1] was determined as 0.000658 s⁻¹; in experiment [2], 8.78e-05 s⁻¹; with human SIRPβ isoform 1 [3], 0.000521 s⁻¹; with human SIRPγ isoform 1 [4], 0.00146 s⁻¹; in [5], 0.00363 s⁻¹; in [6] it was 0.000388 s⁻¹. This molecule also had a koff in [7] of 0.000473 s⁻¹. Moreover, the binding result in experiment [8], in [9] and in [10] was “no binding (tested: Koff > 5 × 10^3 (legend))” each time.

B5: S12 scFv-Fc (scFv)
scFv: AVTQPASVSANPGETVKITCSGDSSYYGWYQQKSPGSAPVTVIYDDNKRPSNIPSRFSGSKSGSTGTLTITGVQADDEAVYFCGNEDNSYVAIFGAGTTLTVLGQSSRSSGGGGSSGGGGSMAAVTLDESGGGLQTPGGALSLVCKASGFTFSSYNMGWVRQAPGKGLEFVAGIYIASGDLGTTYGAAVQGRATISRDDGQSTVRLQLNNLRAEDTGTYFCAKSAGGCSAHSCDTYIADSIDAWGHGTEVIVSSSL[letters of human IgG1 Fc with C220S (EU numbers) and a few adjoining residues left out]
In the case of B5, the koff in experiment [11] was 0.000101 s⁻¹; in [12] it was 0.000524 s⁻¹; in experiment [13], 0.00117 s⁻¹; in [14], 0.000168 s⁻¹; in experiment [15], 0.00198 s⁻¹; with human SIRPγ isoform 1 [16] it was 0.000307 s⁻¹. Also, the koff in [17] amounted to 0.026 s⁻¹; in experiment [18] it was 0.0515 s⁻¹; with human SIRPβ isoform 1 [19] it was 0.000173 s⁻¹. In experiment [20], the binding result was “no binding (tested: 100 nM)”.
